# Experimental data reported in the supplement of paper PMC8728848.
# The other results are listed elsewhere or left out.
# B1: SJA (Sophora japonica) (protein)
# chain: FLGLFNSGGYSSSYQIVAVEFDTYINEWDPKTRHIGIDINSINSTKTVTWGWENGEVAIVLISYKAATETLTVSLTYPSSQTSYILSAAVDLKSILPEWVRIGF
# How the values were obtained:
# Test in all cases: glycan array binding signal (z-score within array); higher = stronger binding
# Settings in all cases: glycan notation: IUPAC condensed, linker removed
# [1] = biological target: Neu5Ac(a2-6)Gal(b1-4)GlcNAc(b1-3)Gal(b1-4)GlcNAc(b1-6)[Gal(b1-3)]GalNAc
# Procedure, shortened: (§1)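 From the Consortium for Functional Glycomics database, 3228 arrays were curated, keeping only those whose protein sequence was available. Binding is given as a within-array Z-score averaged across arrays sharing a protein sequence and across linkers. Negative Z-scores can be read as non-binding.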
# [2] = biological target: Neu5Ac(a2-6)Gal(b1-4)GlcNAc(b1-3)Gal(b1-4)[Fuc(a1-3)]GlcNAc(b1-3)Gal(b1-4)[Fuc(a1-3)]GlcNAc
# Procedure, shortened: as §1
# [3] = biological target: Neu5Ac(a2-6)Gal(b1-4)GlcNAc(b1-3)GalNAc
# Procedure, shortened: as §1
# [4] = biological target: Neu5Ac(a2-6)Gal(b1-4)GlcNAc(b1-3)[Neu5Ac(a2-6)Gal(b1-4)GlcNAc(b1-6)]GalNAc
# Procedure, shortened: as §1
# [5] = biological target: Neu5Ac(a2-6)Gal(b1-4)GlcNAc(b1-6)GalNAc
# Procedure, shortened: as §1
# [6] = biological target: Neu5Ac(a2-6)Gal(b1-4)GlcNAc(b1-6)[Gal(b1-3)GlcNAc(b1-3)]Gal(b1-4)Glc
# Procedure, shortened: as §1
# [7] = biological target: Neu5Ac(a2-6)Gal(b1-4)GlcNAc(b1-6)[Gal(b1-3)]GalNAc
# Procedure, shortened: as §1
# [8] = biological target: Neu5Ac(a2-6)Gal(b1-4)GlcNAc6S
# Procedure, shortened: as §1
# Neu5Ac(a2-6)GalNAc = biological target: Neu5Ac(a2-6)GalNAc
# Procedure, shortened: as §1
# [9] = biological target: Neu5Ac(a2-6)GalNAc(b1-4)GlcNAc
# Procedure, shortened: as §1
# [10] = biological target: Neu5Ac(a2-6)GalNAc(b1-4)GlcNAc6S
# Procedure, shortened: as §1
# [11] = biological target: Neu5Ac(a2-6)GlcNAc(b1-4)GlcNAc
# Procedure, shortened: as §1
# [12] = biological target: Neu5Ac(a2-6)GlcNAc(b1-4)GlcNAc(b1-4)GlcNAc
# Procedure, shortened: as §1
# Neu5Ac(a2-8)Neu5Ac = biological target: Neu5Ac(a2-8)Neu5Ac
# Procedure, shortened: as §1
# [13] = biological target: Neu5Ac(a2-8)Neu5Ac(a2-3)Gal(b1-3)GalNAc(b1-4)[Neu5Ac(a2-3)]Gal(b1-4)Glc
# Procedure, shortened: as §1
# [14] = biological target: Neu5Ac(a2-8)Neu5Ac(a2-3)Gal(b1-3)GalNAc(b1-4)[Neu5Ac(a2-8)Neu5Ac(a2-3)]Gal(b1-4)Glc
# Procedure, shortened: as §1
# [15] = biological target: Neu5Ac(a2-8)Neu5Ac(a2-3)Gal(b1-4)Glc
# Procedure, shortened: as §1
# [16] = biological target: Neu5Ac(a2-8)Neu5Ac(a2-3)Gal(b1-4)GlcNAc
# Procedure, shortened: as §1
# [17] = biological target: Neu5Ac(a2-8)Neu5Ac(a2-3)[Gal(b1-3)GalNAc(b1-4)]Gal(b1-4)Glc
# Procedure, shortened: as §1
# [18] = biological target: Neu5Ac(a2-8)Neu5Ac(a2-3)[GalNAc(b1-4)]Gal(b1-4)Glc
# Procedure, shortened: as §1
# [19] = biological target: Neu5Ac(a2-8)Neu5Ac(a2-8)Neu5Ac
# Procedure, shortened: as §1
# [20] = biological target: Neu5Ac(a2-8)Neu5Ac(a2-8)Neu5Ac(a2-3)Gal(b1-4)Glc
# Procedure, shortened: as §1
# [21] = biological target: Neu5Ac(a2-8)Neu5Ac(a2-8)Neu5Ac(a2-3)[Gal(b1-3)GalNAc(b1-4)]Gal(b1-4)Glc
# Procedure, shortened: as §1
# [22] = biological target: Neu5Ac(a2-8)Neu5Ac(a2-8)Neu5Ac(a2-3)[GalNAc(b1-4)]Gal(b1-4)Glc
# Procedure, shortened: as §1
# [23] = biological target: Neu5Ac(a2-8)Neu5Ac(a2-8)Neu5Ac(a2-8)Neu5Ac(a2-3)[GalNAc(b1-4)]Gal(b1-4)Glc
# Procedure, shortened: as §1
# [24] = biological target: Neu5Ac(a2-8)Neu5Gc(a2-3)Gal(b1-4)GlcNAc
# Procedure, shortened: as §1
# Neu5Ac(b1-6)GalNAc = biological target: Neu5Ac(b1-6)GalNAc
# Procedure, shortened: as §1
# [25] = biological target: Neu5Ac(b2-6)Gal(b1-4)GlcNAc
# Procedure, shortened: as §1
# Neu5Ac(b2-6)GalNAc = biological target: Neu5Ac(b2-6)GalNAc
# Procedure, shortened: as §1
# [26] = biological target: Neu5Ac9Ac(a2-3)Gal(b1-3)GlcNAc
# Procedure, shortened: as §1
# [27] = biological target: Neu5Ac9Ac(a2-3)Gal(b1-4)GlcNAc
# Procedure, shortened: as §1
# [28] = biological target: Neu5Ac9Ac(a2-6)Gal(b1-4)GlcNAc
# Procedure, shortened: as §1
# [29] = biological target: Neu5Gc(a2-3)Gal(b1-3)GlcNAc
# Procedure, shortened: as §1
# [30] = biological target: Neu5Gc(a2-3)Gal(b1-3)[Fuc(a1-4)]GlcNAc
# Procedure, shortened: as §1
# Neu5Gc(a2-3)Gal(b1-4)Glc = biological target: Neu5Gc(a2-3)Gal(b1-4)Glc
# Procedure, shortened: as §1
# [31] = biological target: Neu5Gc(a2-3)Gal(b1-4)GlcNAc
# Procedure, shortened: as §1
# [32] = biological target: Neu5Gc(a2-3)Gal(b1-4)GlcNAc(b1-3)Gal(b1-4)GlcNAc(b1-2)Man(a1-3)[Neu5Gc(a2-3)Gal(b1-4)GlcNAc(b1-3)Gal(b1-4)GlcNAc(b1-2)Man(a1-6)]Man(b1-4)GlcNAc(b1-4)GlcNAc
# Procedure, shortened: as §1
# [33] = biological target: Neu5Gc(a2-3)Gal(b1-4)[Fuc(a1-3)]GlcNAc
# Procedure, shortened: as §1
# [34] = biological target: Neu5Gc(a2-6)Gal(b1-4)GlcNAc
# Procedure, shortened: as §1
# Neu5Gc(a2-6)GalNAc = biological target: Neu5Gc(a2-6)GalNAc
# Procedure, shortened: as §1
# [35] = biological target: Neu5Gc(a2-8)Neu5Ac(a2-3)Gal(b1-4)GlcNAc
# Procedure, shortened: as §1
# [36] = biological target: Neu5Gc(a2-8)Neu5Gc(a2-3)Gal(b1-4)GlcNAc
# Procedure, shortened: as §1
# [37] = biological target: Neu5Gc(a2-8)Neu5Gc(a2-3)Gal(b1-4)GlcNAc(b1-3)Gal(b1-4)GlcNAc
# Procedure, shortened: as §1
# [38] = biological target: Neu5Gc(a2-8)Neu5Gc(a2-6)Gal(b1-4)GlcNAc
# Procedure, shortened: as §1
# [39] = biological target: Neu5Gc(b2-6)Gal(b1-4)GlcNAc
# Procedure, shortened: as §1
binder,measurement,setting,value
B1,glycan array binding signal (z-score),[1],-0.02
same,glycan array binding signal (z-score),[2],-0.009
same,glycan array binding signal (z-score),[3],-0.265
same,glycan array binding signal (z-score),[4],-0.282
same,glycan array binding signal (z-score),[5],-0.006
same,glycan array binding signal (z-score),[6],-0.317
same,glycan array binding signal (z-score),[7],-0.166
same,glycan array binding signal (z-score),[8],-0.268
same,glycan array binding signal (z-score),Neu5Ac(a2-6)GalNAc,-0.109
same,glycan array binding signal (z-score),[9],-0.214
same,glycan array binding signal (z-score),[10],-0.304
same,glycan array binding signal (z-score),[11],-0.296
same,glycan array binding signal (z-score),[12],-0.288
same,glycan array binding signal (z-score),Neu5Ac(a2-8)Neu5Ac,-0.036
same,glycan array binding signal (z-score),[13],-0.054
same,glycan array binding signal (z-score),[14],-0.434
same,glycan array binding signal (z-score),[15],-0.292
same,glycan array binding signal (z-score),[16],-0.378
same,glycan array binding signal (z-score),[17],-0.258
same,glycan array binding signal (z-score),[18],-0.232
same,glycan array binding signal (z-score),[19],-0.169
same,glycan array binding signal (z-score),[20],-0.161
same,glycan array binding signal (z-score),[21],0.164
same,glycan array binding signal (z-score),[22],-0.064
same,glycan array binding signal (z-score),[23],-0.262
same,glycan array binding signal (z-score),[24],-0.348
same,glycan array binding signal (z-score),Neu5Ac(b1-6)GalNAc,-0.178
same,glycan array binding signal (z-score),[25],-0.225
same,glycan array binding signal (z-score),Neu5Ac(b2-6)GalNAc,-0.162
same,glycan array binding signal (z-score),[26],-0.234
same,glycan array binding signal (z-score),[27],0.503
same,glycan array binding signal (z-score),[28],-0.279
same,glycan array binding signal (z-score),[29],-0.168
same,glycan array binding signal (z-score),[30],-0.281
same,glycan array binding signal (z-score),Neu5Gc(a2-3)Gal(b1-4)Glc,-0.319
same,glycan array binding signal (z-score),[31],-0.285
same,glycan array binding signal (z-score),[32],-0.097
same,glycan array binding signal (z-score),[33],-0.144
same,glycan array binding signal (z-score),[34],-0.138
same,glycan array binding signal (z-score),Neu5Gc(a2-6)GalNAc,-0.241
same,glycan array binding signal (z-score),[35],-0.144
same,glycan array binding signal (z-score),[36],-0.298
same,glycan array binding signal (z-score),[37],-0.25
same,glycan array binding signal (z-score),[38],-0.244
same,glycan array binding signal (z-score),[39],-0.211
